# In PubChem BioAssay AID1347165 (National Center for Advancing Translational Sciences (NCATS), 2019):
# The whole screen tested about 220,000 compounds, of which about 5,700 (2.6%) were called active. The shares of active, inactive and inconclusive entries below differ from those in the screen. Calls come from the whole dose curve; as a rule, active = well fitted inhibition curve with a large enough effect; inconclusive = small, poorly fitted or top-dose-only effect; inactive = no such curve, though single readings can be large or run the other way. Potencies of inconclusive entries are doubtful fits and often do not repeat.
# Target: Lysine-specific demethylase 5B (Homo sapiens) (UniProt Q9UGL1)
# Test: Primary screen for KDM5B Histone Demethylases FDH-coupled qHTS; note: nearly all actives have a fitted effect of over 70% in size
# Conditions: FDH-coupled NADH fluorescence (FDH is formaldehyde dehydrogenase); series mostly up to 57.7 µM
# Summary of the method: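 Here, H3K4me3 peptide (12.5 µM in substrate mix) is demethylated by KDM5BΔAP, 200 nM final, after 10 min compound exposure. Formaldehyde product is coupled through FDH (0.25 U/mL in mix) to NADH fluorescence; 30-min ΔRFU feeds dose-response curves.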
# Potency is the fitted concentration of half-maximal effect; tags give direction and shape of the fitted curve.
# UniProt Q9UGL1, sequence (Q9UGL1 whole entry, looked up): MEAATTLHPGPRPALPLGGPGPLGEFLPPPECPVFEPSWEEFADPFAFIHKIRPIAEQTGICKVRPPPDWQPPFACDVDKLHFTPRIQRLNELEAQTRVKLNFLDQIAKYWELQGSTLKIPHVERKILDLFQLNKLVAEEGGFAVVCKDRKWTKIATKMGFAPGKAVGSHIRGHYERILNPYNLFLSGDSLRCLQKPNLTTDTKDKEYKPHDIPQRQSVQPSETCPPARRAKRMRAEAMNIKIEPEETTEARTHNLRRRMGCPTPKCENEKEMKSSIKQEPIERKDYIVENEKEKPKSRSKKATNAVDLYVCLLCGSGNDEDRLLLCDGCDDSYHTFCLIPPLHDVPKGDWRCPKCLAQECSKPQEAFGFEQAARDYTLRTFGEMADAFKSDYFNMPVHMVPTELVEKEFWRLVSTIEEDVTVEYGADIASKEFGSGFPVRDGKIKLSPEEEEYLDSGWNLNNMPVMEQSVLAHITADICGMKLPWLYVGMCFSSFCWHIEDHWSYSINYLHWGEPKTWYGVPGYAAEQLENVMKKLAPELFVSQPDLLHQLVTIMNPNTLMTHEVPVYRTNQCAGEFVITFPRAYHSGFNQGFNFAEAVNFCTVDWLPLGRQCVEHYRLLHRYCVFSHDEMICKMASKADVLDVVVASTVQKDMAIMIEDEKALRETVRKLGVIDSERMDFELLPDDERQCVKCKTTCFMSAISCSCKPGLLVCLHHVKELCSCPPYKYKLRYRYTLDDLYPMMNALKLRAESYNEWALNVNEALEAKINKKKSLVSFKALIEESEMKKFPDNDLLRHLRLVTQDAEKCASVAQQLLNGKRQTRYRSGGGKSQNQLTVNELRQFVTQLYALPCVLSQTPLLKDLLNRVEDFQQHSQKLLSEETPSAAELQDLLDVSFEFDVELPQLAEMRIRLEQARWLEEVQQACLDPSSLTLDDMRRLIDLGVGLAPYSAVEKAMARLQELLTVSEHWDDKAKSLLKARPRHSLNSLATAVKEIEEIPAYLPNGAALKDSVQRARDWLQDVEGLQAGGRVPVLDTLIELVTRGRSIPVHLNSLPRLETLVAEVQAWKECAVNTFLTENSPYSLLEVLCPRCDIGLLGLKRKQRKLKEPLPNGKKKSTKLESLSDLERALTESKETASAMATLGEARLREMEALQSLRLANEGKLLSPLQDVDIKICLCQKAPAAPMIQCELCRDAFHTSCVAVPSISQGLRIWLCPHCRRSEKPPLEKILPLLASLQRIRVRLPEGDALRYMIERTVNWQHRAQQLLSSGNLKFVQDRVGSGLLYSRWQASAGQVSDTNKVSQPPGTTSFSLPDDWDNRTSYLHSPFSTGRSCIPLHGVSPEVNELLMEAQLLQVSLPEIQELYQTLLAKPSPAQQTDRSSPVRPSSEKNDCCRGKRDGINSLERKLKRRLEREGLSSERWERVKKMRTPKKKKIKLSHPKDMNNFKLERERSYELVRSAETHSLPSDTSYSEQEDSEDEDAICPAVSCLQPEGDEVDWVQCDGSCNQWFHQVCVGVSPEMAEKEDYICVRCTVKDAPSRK
row,Compound,Potency
1,COc1ccc(-c2cc(-c3ccc(F)cc3)nc3c2COc2ccccc2-3)cc1,"inconclusive: 2.82 µM [inhibitor, partial curve, poor fit]"
2,CC(=O)NCCC(=O)N1Cc2ccccc2CC2(CCCN2CC2CCNC2)C1 (stereo not given),"inconclusive: 31.6 µM [inhibitor, full curve, poor fit]"
3,CCOc1ccc(OCC)c(NC(=O)c2c(C)nn(-c3ccccc3)c2-n2cccc2)c1,"inconclusive: 1 µM [inhibitor, full curve, poor fit]"
4,COc1ccc(N2CC(c3noc(-c4ccc(C(C)(C)C)cc4)n3)CC2=O)cc1 (stereo not given),"inconclusive: 22.4 µM [inhibitor, single point]"
5,Cc1nn(C)c2c1c(C(F)(F)F)cc(=O)n2CC(=O)NC(C)(C)C,"inconclusive: 35.5 µM [inhibitor, partial curve, poor fit]"
6,COCCOCc1nc(C2CCCN2S(=O)(=O)Cc2ccccc2F)no1 (stereo not given),inactive
7,NS(=O)(=O)c1ccc(Br)c(C(=O)OCc2ccc(Cl)c(Cl)c2)c1,"inconclusive: 22.4 µM [inhibitor, partial curve, poor fit]"
8,COC(=O)c1ccc(NC(=O)c2c(NCc3ccc(OC)c(OC)c3)sc3c2CCCC3)cc1,"inconclusive: 20 µM [inhibitor, partial curve, poor fit]"
9,CC1=C(C(=O)Nc2ccc(C)cc2C)C(c2cccc3ccccc23)NC(=S)N1 (stereo not given),"inconclusive: 11.2 µM [inhibitor, partial curve, poor fit]"
10,Cc1ccc(C)c(-c2cc3c(=O)n(CCNC(=O)c4c(F)cccc4Cl)ccn3n2)c1,inactive
11,COc1cccc(CNC(=O)N[C@@H]2CN(Cc3ccncc3)C[C@H]2CN(C)C)c1,"inconclusive: 20 µM [inhibitor, single point]"
12,CCc1cccc(NC(=O)c2ccc3c(c2)N(CC)C2CCCCN2C3=O)c1 (stereo not given),"inconclusive: 28.2 µM [inhibitor, partial curve, poor fit]"
13,CCN1c2cc(C(=O)Nc3ccc(F)c(Cl)c3)ccc2C(=O)N2CCCCC21 (stereo not given),"inconclusive: 31.6 µM [inhibitor, partial curve, poor fit]"
14,COc1ccc(CCNC(=O)c2cc3c(=O)[nH]c4ccc(C)cc4c3s2)cc1OC,"inconclusive: 15.8 µM [inhibitor, partial curve, poor fit]"
15,CC(OC(=O)c1cccc(N(C)C)c1)C(=O)c1ccccc1 (stereo not given),inactive
16,COc1ccccc1OCCNC(=O)c1cc2n(n1)CC(c1ccc(Cl)cc1)OC2 (stereo not given),inactive
17,CCCN1CCC2(CC1)Oc1c(OC)cccc1C1CC(c3ccc4c(c3)OCO4)=NN12 (stereo not given),"inconclusive: 39.8 µM [inhibitor, single point]"
18,Cc1ccnc(N2CCC(O)(c3ccc(F)cc3)CC2)n1,active: 28.2 µM
19,Cc1ccc2nc(-c3ccc(NC(=O)COCC(=O)O)cc3)sc2c1,"inconclusive: 15.8 µM [inhibitor, partial curve, poor fit]"
20,O=C1c2c(nc(COc3ccc(F)cc3F)n2Cc2ccccc2)NCCN1CCOc1ccccc1,"inconclusive: 28.2 µM [inhibitor, partial curve, poor fit]"
21,COc1ccc(-c2noc([C@@H]3C[C@@H](O)CN3C(C)C)n2)cc1,"inconclusive: 31.6 µM [inhibitor, single point]"
22,CSc1ccc(CCNC(=O)c2ccc3c(c2)c(C)c(C)n3Cc2ccc(F)cc2)cc1,"inconclusive: 28.2 µM [inhibitor, partial curve, poor fit]"

row,Compound,Potency
1,CCc1noc(-c2cccn3c(CNC(=O)c4cc(C)ccc4C)nnc23)n1,active: 10 µM
2,C(C#CCOC/C=C/c1ccccc1)#CCOC/C=C/c1ccccc1,"inconclusive: 14.1 µM [inhibitor, partial curve, poor fit]"
3,CCOCC(=O)N1CCC2(CC1)NCCc1c2[nH]c2ccccc12,"inconclusive: 20 µM [inhibitor, partial curve]"
4,Cc1nc2scc(CC(=O)NCCC(C)C)n2c(=O)c1-c1cc(C)n(-c2cc(F)ccc2F)n1,active: 28.2 µM
5,CCC1CCc2c(sc(NC(=O)C3CC3)c2C#N)C1 (stereo not given),inactive
6,O=C(c1ccc(N2CCCC(CO)C2)nc1)N1CCC(N2CCOCC2)CC1 (stereo not given),"inconclusive: 28.2 µM [inhibitor, partial curve, poor fit]"
7,CCN1C(=O)C2(CCN(C(=O)C3CC3)CC2)c2ccccc21,inactive
8,O=S(=O)(Nc1nc2ccccc2nc1NCc1ccccc1)c1cccc2nsnc12,inactive
9,COc1ccc(CN(C)Cc2cc(=O)oc3c(C)c(C)ccc23)cc1,inactive
10,CN1[C@@H](CCC(=O)N2CCc3ccccc32)CNC(=O)[C@@H]2[C@H]1CCN2Cc1cccs1,inactive
11,O=C(NCc1ccccn1)c1nn(-c2ccccc2Cl)nc1CO,"inconclusive: 15.8 µM [inhibitor, partial curve, poor fit]"
12,CCN(CC)C(=O)C1=C(C)Nc2nc3ccccc3n2C1c1ccc(Cl)cc1 (stereo not given),"inconclusive: 28.2 µM [inhibitor, single point]"
13,CC(OC(=O)c1cc(=O)[nH]c2ccccc12)C(=O)Nc1ccc(C(N)=O)cc1 (stereo not given),"inconclusive: 35.5 µM [inhibitor, single point]"
14,Cc1c(O)ccc2c(CN3CCCCC3)cc(=O)oc12,"inconclusive: 22.4 µM [inhibitor, partial curve, poor fit]"
15,COc1ccccc1NC(=O)C(C)Sc1ncnc2ccccc12 (stereo not given),inactive
16,CCN(CC)CCNC(=O)c1cc2c(=O)[nH]c3ccc(C)cc3c2s1,"inconclusive: 2.24 µM [inhibitor, full curve, poor fit]"
17,CCN(CC(=O)NCc1ccc(Cl)cc1)C(=O)c1ccc2cc(OC)ccc2c1,"inconclusive: 25.1 µM [inhibitor, single point]"
18,O=C1OC2(CCN(C(=O)c3ccco3)CC2)CN1CCOc1ccccc1,inactive
19,CCOc1ccccc1NC(=O)N1CCN(S(=O)(=O)c2ccc3c(ccn3C)c2)CC1,"inconclusive: 35.5 µM [inhibitor, single point]"
20,COc1cccc(-c2noc(-c3ccc(CSCc4ccccc4F)o3)n2)c1OC,inactive
21,COc1ccc(-c2ccc3c(c2)C(=O)N2C[C@H](O)C[C@H]2C(=O)N3)cc1,"inconclusive: 35.5 µM [inhibitor, single point]"
22,Cc1ccc(-c2ccc(CCC(=O)O)n2-c2ccc(C(C)C)cc2)cc1,"inconclusive: 17.8 µM [inhibitor, partial curve, poor fit]"

row,Compound,Potency
1,c1coc(CNC23CC4CC(CC(C4)C2)C3)c1,inactive
2,Cc1ccc(NC(=O)C2Cc3ccc(C)cc3S2)cc1 (stereo not given),inactive
3,O=C(COc1ccc2ccc(=O)oc2c1)Nc1ccc(F)cc1F,"inconclusive: 39.8 µM [inhibitor, single point]"
4,CC(C)NC(=O)NC(=O)COc1ccc2ccc(=O)oc2c1,"inconclusive: 25.1 µM [inhibitor, partial curve, poor fit]"
5,O=C(COc1ccc(-n2cnnn2)cc1)N1CCCC2(CCOC2)C1 (stereo not given),inactive
6,Cc1ccc(NC(=O)/C(C#N)=C\c2ccc(Cl)cc2Cl)cc1C,"inconclusive: 35.5 µM [inhibitor, single point]"
7,Cc1noc(C)c1[S+](=O)([O-])N1CCn2c(nn(-c3ccc(F)cc3F)c2=O)C1,"inconclusive: 25.1 µM [inhibitor, single point]"
8,O=C(Nc1cccc(-n2cnnn2)c1)c1cc2ccccc2o1,"inconclusive: 28.2 µM [inhibitor, partial curve, poor fit]"
9,COc1ccc2c(c1)c1c(c(=O)n(CCc3ccccc3)c(=O)n1Cc1ccc(Cl)cc1)n2C,"inconclusive: 17.8 µM [inhibitor, single point]"
10,COc1ccc(-c2cc(C(=O)N3CCOCC3)c3c(C4CCCN4)nn(C)c3n2)cc1 (stereo not given),"inconclusive: 56.2 µM [inhibitor, partial curve, poor fit]"
11,COc1ccc(C(=O)N2CCC3(CC2)C(OC)CN3c2cccc(F)c2)cc1F (stereo not given),inactive
12,CCOc1ccc2ccccc2c1/C=N/NC(=O)c1ccc(C)nc1,"inconclusive: 25.1 µM [inhibitor, single point]"
13,COc1cc(NC(=O)N2CCN(c3cc(-c4noc(C)n4)ccc3C)CC2)cc(OC)c1OC,"inconclusive: 28.2 µM [inhibitor, partial curve, poor fit]"
14,O=C(Nc1ccccn1)C1CC(=O)N(c2ccc3c(c2)OCO3)C1 (stereo not given),inactive
15,CCN1CCN(c2cc(C)c3cc(NC(=O)CC4CCCCC4)ccc3n2)CC1,"inconclusive: 28.2 µM [inhibitor, partial curve, poor fit]"
16,O=C(O)c1cn(C2CCCCC2)c2ccccc2c1=O,"inconclusive: 22.4 µM [inhibitor, partial curve, poor fit]"
17,COCC(=O)N1CC(CNc2ccccc2)C2(C1)CN(c1ccccc1)C2 (stereo not given),inactive
18,CCN(C(=O)COc1ccc2ccc(=O)oc2c1)C1CCCCC1,"inconclusive: 28.2 µM [inhibitor, partial curve, poor fit]"
19,COCCNC(=O)c1ccc2c(c1)N(C)C(CC(=O)NCC(C)C)CO2 (stereo not given),"inconclusive: 28.2 µM [inhibitor, partial curve, poor fit]"
20,O=[S+]1([O-])NC2(CCN(Cc3ccccc3)CC2)COc2ccccc21,"inconclusive: 15.8 µM [inhibitor, full curve, poor fit]"
21,O=C(C1CCc2ncc(-c3ccc(F)cc3)n2C1)N1CCCC1 (stereo not given),inactive
